The other results are listed elsewhere or left out. The main result of the screen is listed elsewhere. These columns were measured beside it and carry no call.
Target: GTPase KRas (Homo sapiens) (UniProt P01116)
Test: Fragment capture on engineered cysteines, share of protein labelled (AID 2202238)
Set-up: protein at 5 µM with 500 µM competing thiol for 1.5 h
Conditions: KRAS G12D cysteine mutants, disulfide tethering, MALDI-TOF labeling, stronger effect = higher value, fragment at 500 µM
[1] = measured here: G60C mutant labeling
[2] = measured here: G75C mutant labeling
[3] = measured here: H94C mutant labeling
[4] = measured here: I36C mutant labeling
[5] = measured here: L120C mutant labeling
[6] = measured here: M67C mutant labeling
[7] = measured here: M72C mutant labeling
[8] = measured here: N26C mutant labeling
[9] = measured here: N86C mutant labeling
[10] = measured here: P121C mutant labeling
[11] = measured here: S122C mutant labeling
[12] = measured here: S136C mutant labeling

UniProt P01116, sequence (P01116 whole entry, looked up, the tested form may be a part): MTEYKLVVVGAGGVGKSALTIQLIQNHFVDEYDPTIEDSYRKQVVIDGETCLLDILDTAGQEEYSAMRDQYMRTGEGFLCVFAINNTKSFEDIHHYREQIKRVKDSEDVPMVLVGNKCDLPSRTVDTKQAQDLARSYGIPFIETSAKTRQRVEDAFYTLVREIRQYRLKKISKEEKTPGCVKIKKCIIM

| Compound | percent labeling [1] [%] | percent labeling [2] [%] | percent labeling [3] [%] | percent labeling [4] [%] | percent labeling [5] [%] | percent labeling [6] [%] | percent labeling [7] [%] | percent labeling [8] [%] | percent labeling [9] [%] | percent labeling [10] [%] | percent labeling [11] [%] | percent labeling [12] [%] |
| --- | --- | --- | --- | --- | --- | --- | --- | --- | --- | --- | --- | --- |
| CC(C)C(NC(=O)Cc1ccccc1)C(=O)NCCS (stereo not drawn) | 40.6 | 10.6 | 31.9 | 25.5 | 39.5 | 30.6 | 20.3 | 34.3 | 20.3 | 32.8 | 31.3 | 44.7 |
| O=C(Nc1sc2c(c1C(=O)NCCS)CCC2)c1ccco1 | 10.3 | 5.1 | 10.2 | 0 | 3.9 | 5.1 | 6.8 | 7.2 | 5 | 3.8 | 0 | 3.9 |
| O=C(CCS)NCC1(O)CCC2(CC1)OCCO2 |  | 0 | 7.4 | 5.2 | 10.1 | 7.3 | 3 |  | 2.6 | 10.3 | 12.4 | 13.3 |
| O=C(CCS)N1CCn2c(nc3c2CCCC3)C1 |  | 17.9 | 25 | 42.5 | 31 | 37.3 | 25.7 |  | 15.1 | 30.4 | 34 | 63 |
| O=C(NCCS)c1cc(-n2cccc2)ccc1Cl | 25.2 | 4.1 | 12.6 | 8.7 | 15 | 10.4 | 7.9 | 22.8 | 5.1 | 20.5 | 11.3 | 3 |
| O=C(CCS)Nc1ncc(Cc2cccc(Cl)c2)s1 |  | 17.4 | 8.6 | 17.9 | 15.8 | 23.1 | 24.4 |  | 12.1 | 15.6 | 8.9 | 20.2 |
| CCc1nn(C)c(CC)c1CC(=O)NCCS | 33.1 | 12.3 | 30 | 20 | 30 | 30.8 | 15.8 | 33 | 21.1 | 28.2 | 28.7 | 38.8 |
| O=C(CCn1c(=O)oc2ccccc21)NCCS | 32.4 | 11 | 32.7 | 28.3 | 33.9 | 38 | 22.4 | 31.9 | 22.5 | 37.6 | 27.8 | 41.2 |
| Cn1cc(-c2cncc(C(=O)NCCS)c2)cn1 | 25.4 | 17.6 | 25 | 22.2 | 28.3 | 28 | 45.6 | 56.5 | 10.6 | 21.5 | 24.9 | 41.9 |
| O=C(CCS)N1CCCC(c2ccn[nH]2)C1 (stereo not drawn) |  | 17.4 | 36.9 | 41.5 | 29.3 | 38.2 | 29 |  | 23.3 | 36.1 | 36.7 | 58.9 |
| O=C(NCCS)C1(C(F)(F)F)CCN(c2ccccn2)C1 (stereo not drawn) | 40.5 | 17.6 | 25.9 | 22.2 | 25.4 | 31.3 | 16.4 | 32.6 | 24.2 | 21.4 | 17.3 | 41.7 |
| Cc1ccc(-c2cc(NC(=O)CCS)n[nH]2)cc1 |  | 17.6 | 15 | 28.9 | 20.3 | 9.2 | 62.2 |  | 26.7 | 23.5 | 12.1 | 32.4 |
| O=C(CCS)Nc1ccccc1N1CCC(CO)CC1 |  | 23.7 | 61.5 | 36.7 | 20.9 | 35.2 | 47.8 |  | 27.6 | 27.6 | 26.6 | 49.9 |
| Cc1ncsc1C(=O)NCCNC(=O)CCS |  | 8 | 33.1 | 38.9 | 25.5 | 33.5 | 12.5 |  | 19.2 | 32.4 | 33 | 44.7 |
| Cc1cc(Br)cc2cc(C(C(C)C)N(C)C(=O)CCS)oc12 (stereo not drawn) |  | 24.2 | 52.7 | 29.1 | 26.5 | 32.2 | 28.8 |  | 20.2 | 30.8 | 11.5 | 50 |
| Cn1ccnc1Cn1cccc(NC(=O)CCS)c1=O |  | 11.5 | 28.1 | 35 | 35.8 | 34.9 | 23.6 |  | 32.7 | 28.9 | 29.8 | 49.4 |
| Cc1cc(C)n(-c2ccc(C(=O)NCCS)cc2F)n1 | 48.1 | 14.8 | 26.5 | 22 | 29.4 | 21.4 | 48.4 | 34 | 22.4 | 24.8 | 21.2 | 43.6 |
| O=C(NCCS)c1cnn2cccc(Br)c12 | 41.3 | 21.1 | 34.3 | 24.2 | 32.1 | 37.3 | 61.5 | 44.6 | 28.2 | 32.7 | 28.5 | 50.2 |
| O=C(NCCS)c1ccc2c(ccn2Cc2ccccc2)c1 | 21.2 | 11.3 | 15.4 | 11.4 | 15.3 | 15.9 | 41.3 | 20.3 | 14.3 | 16.3 | 7.2 | 12.9 |
| O=C(CCS)N1CCC(O)(c2cccc3cnccc23)CC1 |  | 20.8 | 32.6 | 41.6 | 29.9 | 55.2 | 44.5 |  | 33.7 | 29.4 | 24.1 | 55.9 |
| O=C(CCS)N1CCN(c2cc(F)cc(F)c2)CC1 |  | 16.1 | 26.7 | 22.5 | 22.5 | 24.1 | 39 |  | 19.9 | 25.1 | 22.3 | 44.5 |
| O=C(CCS)Nc1ccc2[nH]c(=O)sc2c1 |  | 12.7 | 25.9 | 32.8 | 19.3 | 14.5 | 54.2 |  | 11.4 | 18.3 | 18.7 | 39.9 |
| COc1cc(C(=O)NCCS)cc2c1OC(C)C2 (stereo not drawn) | 35.6 | 16.1 | 24.8 | 24 | 29 | 20 | 42.4 | 45.3 | 15.4 | 21.1 | 24.2 | 46.4 |
| COc1cccc(-c2cc(C(=O)NCCS)[nH]n2)c1 | 19.7 | 16.4 | 16.9 | 11.6 | 22.1 | 12.2 | 51.9 | 29.8 | 15.5 | 17.1 | 13 | 19.5 |

| Compound | percent labeling [1] [%] | percent labeling [2] [%] | percent labeling [3] [%] | percent labeling [4] [%] | percent labeling [5] [%] | percent labeling [6] [%] | percent labeling [7] [%] | percent labeling [8] [%] | percent labeling [9] [%] | percent labeling [10] [%] | percent labeling [11] [%] | percent labeling [12] [%] |
| --- | --- | --- | --- | --- | --- | --- | --- | --- | --- | --- | --- | --- |
| O=C(NCCS)c1ccccc1O | 40.7 | 30.6 | 37.3 | 37.5 | 43.6 | 28.8 | 47.1 | 34.2 | 32.9 | 35.1 | 29.4 | 37.7 |
| COc1ccc(-c2cc(C(=O)NCCS)sc2C)cc1 | 47.8 | 30.2 | 25.1 | 19.3 | 24.5 | 12 | 77.7 | 37.5 | 15.6 | 18.1 | 9.8 | 33.8 |
| Cc1nc(N2CCN(C)CC2)ccc1NC(=O)CCS |  | 8.4 | 31.4 | 34.8 | 24.9 | 43.6 | 20.1 |  | 29.4 | 25.8 | 24.1 | 50.6 |
| Cc1c(NC(=O)CCS)cccc1N1CCCCC1 |  | 5.5 | 14.1 | 14.6 | 18.5 | 17.4 | 27.9 |  | 0 | 16.2 | 16.8 | 27.5 |
| O=C(NCCS)c1cn(-c2ccc(Cl)c(Cl)c2)cn1 | 14.7 | 13.8 | 10.4 | 10.4 | 11.5 | 8.4 | 56 | 21 | 9.4 | 10.5 | 6.4 | 12.7 |
| Cc1cc(C)n(Cc2cccc(C(=O)NCCS)c2)n1 | 42.7 | 19.3 | 37.9 | 25.3 | 43 | 33.5 | 37.9 | 44.2 | 27.7 | 26.7 | 27.4 | 58.9 |
| Cc1noc(C2COCCN2C2CN(C(=O)CCS)C2)n1 (stereo not drawn) |  | 9.2 | 27.3 | 33.7 | 30 | 31.6 | 16.1 |  | 22 | 28.7 | 28.5 | 44.1 |
| CCOC(=O)c1sc(NC(=O)CCS)cc1C1CC1 |  | 9.2 | 15.5 | 18.9 | 12.7 | 11.2 | 39.7 |  | 12.1 | 12.4 | 9.6 | 25.4 |
| O=C(NCCS)C1C2Cc3ccc(Br)cc3C21 (stereo not drawn) | 36.8 | 8.3 | 17 | 14.7 | 15.3 | 21.7 | 31.6 | 28.5 | 10.6 | 15 | 10.2 | 19.4 |
| COC1CC2(CCC(C(=O)NCCS)CC2)C1 (stereo not drawn) | 31.2 | 13.9 | 32.6 | 22.8 | 35.1 | 32.6 | 27 | 39.4 | 31.7 | 29.2 | 32.9 | 47.6 |
| O=C(NCCS)c1cnn(-c2cncc3nnnn23)c1 | 9.2 | 0 | 8.2 | 6.1 | 10.8 | 8.6 | 0 | 17.4 | 6.7 | 7.5 | 8.6 | 16.4 |
| Cc1nnc(SCC2CCCN2C(=O)CCS)s1 (stereo not drawn) |  | 10.9 | 38.9 | 38.4 | 34.6 | 41.1 | 23.8 |  | 33.7 | 30.3 | 32 | 57 |
| Cn1nc(CNC(=O)CCS)cc1C(N)=O |  | 10.8 | 24.2 | 38.3 | 24.1 | 29.6 | 16.9 |  | 16.5 | 31.7 | 36.9 | 44.9 |
| CC(C)(C)OCC(=O)NC(C)(C)C(=O)NCCS | 15.5 | 5.8 | 26.7 | 19.1 | 40.7 | 24 | 12.8 | 26.5 | 20.9 | 26.4 | 31.3 | 34.4 |
| Cn1nc(CCNC(=O)CCS)nc1-c1ccccc1 |  | 9.8 | 37.9 | 40.4 | 30.4 | 45.8 | 19.8 |  | 24.2 | 34 | 33.9 | 55.3 |
| O=C(CC1(c2ccc(C(F)(F)F)cc2)CC1)NCCS | 50.2 | 21.1 | 39.4 | 15.7 | 26.7 | 21 | 28.3 | 29.2 | 17.8 | 23 | 15.9 | 23.2 |
| O=C(CCS)N1CC(c2cc3n(n2)CCCC3)C1 |  | 17.2 | 28.2 | 35.5 | 26.1 | 44 | 27.6 |  | 16.7 | 31.4 | 32.2 | 54.9 |
| CN1CCCN(C(=O)CCS)c2ccccc21 |  | 13.2 | 39.4 | 40 | 20.2 | 37.1 | 38.3 |  | 28.2 | 27.2 | 29.5 | 51.2 |
| CN1CCC(c2ccccc2)CC1C(=O)NCCS (stereo not drawn) | 60 | 27.6 | 40 | 38.8 | 45.2 | 60.8 | 34.8 | 52 | 31.6 | 42.7 | 30.6 | 62.7 |
| O=C(CCS)N(Cc1ccc(Cl)cc1)c1ccccc1 |  | 30.2 | 37.1 | 29.4 | 28.7 | 24 | 41.3 |  | 32.1 | 28.7 | 14.4 | 37.7 |
| COc1ccc2c(c1)C1(CC1)CN(C(=O)CCS)C2 |  | 11.3 | 17.1 | 18.1 | 26 | 21.8 | 29.6 |  | 12.4 | 21.8 | 17.5 | 34.1 |
| COCc1ccc(C(=O)NCCS)cc1OC | 31.5 | 14.3 | 26 | 22.7 | 38.7 | 30.7 | 44.3 | 40.1 | 19.3 | 24.3 | 25.9 | 60.3 |
| O=C(NCCS)c1c[nH]c(=O)cc1C(F)(F)F | 28.5 | 16.1 | 29.7 | 26.9 | 34.8 | 29.8 | 25.5 | 39.1 | 42.6 | 33.3 | 35.7 | 40.8 |

— PubChem BioAssay AID2202238 (Ras Initiative Chemistry Research Team, Frederick National …, 2025)
